According to PubChem BioAssay AID360 (National Center for Advancing Translational Sciences (NCATS), 2006):
The campaign covered roughly 48,000 compounds. About 550 (1.1%) were called active. Inconclusive results (about 4%) are left out. Rule as the data show it: active = potency below about 15 µM; inconclusive = mostly about 16 µM to 33 µM; inactive = weaker than that. The list shows a part of the results.

What follows are molecules tested against Lysosomal acid glucosylceramidase (Homo sapiens) (UniProt P04062) (assay: Glucocerebrosidase). Conditions: purified enzyme, resorufin glucoside fluorescence (screen aimed at inhibitors), 20 min; series mostly up to 77 µM.
How it was run: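 Normal human glucocerebrosidase (0.2 nM final) was assayed with resorufin β-D-glucopyranoside (30 uM final) in 50mM citric acid/KH2PO4, 10mM sodium taurocholate, 0.01% tween-20, pH 5.9. Compounds were titrated; fluorescence (Ex 548, Em 600) read after 20 min at RT.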
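Also: the screen sought inhibitors.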
Potency is read from the fitted curve at half-maximal effect.

Sequence of UniProt P04062 (P04062 whole entry, looked up): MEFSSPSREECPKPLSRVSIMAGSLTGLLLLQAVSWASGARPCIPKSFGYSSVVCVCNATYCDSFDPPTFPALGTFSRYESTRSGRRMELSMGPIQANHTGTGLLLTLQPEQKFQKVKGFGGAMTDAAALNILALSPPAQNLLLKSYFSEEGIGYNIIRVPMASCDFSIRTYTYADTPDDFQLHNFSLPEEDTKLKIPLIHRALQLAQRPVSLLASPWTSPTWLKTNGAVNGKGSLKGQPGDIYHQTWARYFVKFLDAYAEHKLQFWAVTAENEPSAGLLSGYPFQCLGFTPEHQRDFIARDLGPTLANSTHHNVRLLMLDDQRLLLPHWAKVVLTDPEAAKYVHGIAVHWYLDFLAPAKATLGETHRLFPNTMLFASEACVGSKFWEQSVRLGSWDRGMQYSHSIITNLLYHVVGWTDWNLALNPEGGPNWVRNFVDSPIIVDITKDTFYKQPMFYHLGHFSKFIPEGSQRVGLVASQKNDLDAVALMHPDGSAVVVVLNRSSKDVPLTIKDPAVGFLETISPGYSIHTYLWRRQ

Potency, inactive:
COc1ccc(NC(=O)C23CCC(C)(C(=O)O2)C3(C)C)cc1 (configuration not stated) > 76.9 µM
CCCCC(=O)NC1(C(F)(F)F)C(=O)Nc2c1c(=O)n(C)c(=O)n2C (configuration not stated) > 76.9 µM
CCOc1cc(CN2CCN(C(=O)CC(C)C)CC2)ccc1OC > 76.9 µM
CCN(CC)CCNc1nc2c(c(=O)n(C)c(=O)n2C)n1C/C=C(/C)Cl > 76.9 µM
Clc1cccc(CSc2nnc(-c3cccnc3)n2Cc2ccco2)c1 > 76.9 µM
Cc1c(C(=O)COC(C)(C)C)[nH]c2ccccc12 > 76.9 µM
CNc1nc(N)c(C(=O)C(C)(C)C)s1 > 76.9 µM
CCCCc1nnc(NC(=O)C2CCCO2)s1 (configuration not stated) > 76.9 µM
COCCNC(=O)C(c1cccs1)N(C(=O)Cn1nnc2ccccc21)c1ccc2c(c1)OCO2 (configuration not stated) > 76.9 µM
Cc1cc(C)n2c(SCCC(C)C)nnc2n1 > 76.9 µM
O=C(NCCN1CCOCC1)C1CCN(Cc2ccccc2O)CC1 > 76.9 µM
Cc1n[nH]c(C)c1S(=O)(=O)N1CCN(c2ccccn2)CC1 > 76.9 µM
CN1CCCC(OC(=O)c2cc(Cl)ccc2Cl)C1 (configuration not stated) > 76.9 µM
O=C(CSc1ncn[nH]1)NC1CC2CCC1C2 (configuration not stated) > 76.9 µM
CNc1nc2sc3c(c2c(=O)n1C)CC(C)(C)SC3 > 76.9 µM
Cn1c(SCc2nnc(-c3ccccc3Br)o2)nc2sc3c(c2c1=O)CCC3 > 76.9 µM
N#Cc1nc(COc2ccc(F)cc2)oc1N1CCC(Cc2ccccc2)CC1 > 76.9 µM
CCOc1cc(NC(=O)c2ccco2)c(OCC)cc1NC(=O)CCc1ccccc1OC > 76.9 µM
Cc1csc(SCC(=O)Nc2ccccn2)n1
Cc1ccccc1C(=O)NC1CC(C)(C)NC(C)(C)C1 > 76.9 µM
CCCN(CCC)CCNc1c(N2CCN(C(=O)OCC)CC2)c(=O)c1=O > 76.9 µM
Cc1nc(SCCCSc2n[nH]c(C)n2)n[nH]1 > 76.9 µM
Cn1c2c(c(=O)n(C)c1=O)C(c1cccc(Br)c1)C1C(=O)c3ccccc3C1=N2 (configuration not stated) > 76.9 µM
O=C(COC(=O)CCNS(=O)(=O)c1ccc(Cl)cc1)NCc1ccco1 > 76.9 µM
Cc1cc(C(=O)CSc2nnc(Nc3ccccc3)s2)c(C)n1CC1CCCO1 (configuration not stated) > 76.9 µM
COc1cccc(Oc2ccc(N)cc2)c1 > 76.9 µM
Cc1nc(CSc2nc3[nH]ncc3c(=O)n2-c2ccccc2)cs1 > 76.9 µM
O=S(=O)(NCC1CCCO1)c1ccc2oc3ccc(S(=O)(=O)NCC4CCCO4)cc3c2c1 (configuration not stated) > 76.9 µM
Cc1ccc2nsnc2c1S(=O)(=O)Nc1cccc2nsnc12 > 76.9 µM
O=C(c1ccco1)N1CCN(S(=O)(=O)c2ccc3c(c2)CCN3C(=O)C2CC2)CC1 > 76.9 µM
COc1ccc(CCCc2nnc(SCC(=O)Nc3cc(C)c(C)cc3Br)o2)cc1 > 76.9 µM
COC(=O)c1ccc(CSc2nnnn2Cc2ccccc2)cc1 > 76.9 µM
N#Cc1ccccc1-n1c(N)c(C(=O)N2CCCC2)sc1=S > 76.9 µM
CCCCCCNC(=O)c1c(N)n(/N=C/c2ccco2)c2nc3ccccc3nc12 > 76.9 µM
CCC(C)[C@H](NC(=O)NCc1ccc(Cl)cc1)C(=O)OC (some centres not stated) > 76.9 µM
O=C(OCc1nnc(-c2ccccc2)o1)c1ccco1 > 76.9 µM
CC(C)(C)c1ccc(S(=O)(=O)NCC(=O)N2CCN(C(=O)c3ccco3)CC2)cc1 > 76.9 µM
CCCNS(=O)(=O)c1ccc(OCC(=O)NCc2ccco2)cc1 > 76.9 µM
Oc1ccccc1C1=NCCNC(C(F)(F)C(F)F)=C1 > 76.9 µM
O=C(NCc1ccncc1)/C(=N/O)c1ccccc1 > 76.9 µM
Cc1ccc(NCCNc2ccc(C)cc2)cc1 > 76.9 µM
CC(C)COc1cc(=O)[nH]c(SCC(C)C)n1 > 76.9 µM
CC(C)Cc1nnc(NC(=O)CSc2nc(=O)cc(N)n2-c2ccccc2)s1 > 76.9 µM
Cc1cc(C)nc(N2CCC(C(=O)Nc3ccc4c(c3)OCO4)CC2)n1 > 76.9 µM
Cc1ccc(-c2cc(C(F)(F)F)n3ncc(C(=O)O)c3n2)cc1 > 76.9 µM
CCCn1c(SCC(=O)NCCc2ccc(OC)c(OC)c2)nc2c1c(=O)n(C)c(=O)n2C > 76.9 µM
COc1ccc(N2CCn3c2nc2c3c(=O)n(CCc3ccccc3)c(=O)n2C)cc1 > 76.9 µM
CC(=O)c1ccc(NC(=O)CCNS(=O)(=O)c2cccc3nonc23)cc1 > 76.9 µM
CCc1ccc(-c2nnn(Cc3nc4ccccc4s3)n2)cc1 > 76.9 µM
CCCN1Cc2cccc(C(=O)NCCCOC(C)C)c2C1=O > 76.9 µM
COc1ccc(OC)c(C2C(C(=O)Nc3cccnc3)=C(C)NC3=C2C(=O)CCC3)c1 (configuration not stated) > 76.9 µM
CCOc1ncccc1C(=O)Nc1ccc(Cl)cc1 > 76.9 µM
Cc1cc(C)n2cc(CSc3nnnn3C)nc2n1 > 76.9 µM
COc1ccc(C2=CC(c3c(C)nn(-c4ccccc4)c3Cl)n3nnnc3N2)cc1OC (configuration not stated) > 76.9 µM
O=C1CN(C(=O)COC(=O)C2CC(=O)N(Cc3ccco3)C2)c2ccccc2N1 (configuration not stated) > 76.9 µM
CCOC(=O)N1CCC(Nc2c(NCCN3CCN(Cc4ccccc4)CC3)c(=O)c2=O)CC1 > 76.9 µM
Cc1ccc(Oc2ccc(N)cc2)cc1 > 76.9 µM
O=C(Nc1ccc2c(c1)OCO2)c1cnn2cccnc12 > 76.9 µM
CCC(=O)OCC(=O)c1c(N)n(Cc2ccccc2)c(=O)n(C)c1=O > 76.9 µM
Cc1cc(C(=O)CSC(C)c2nc3ccccc3c(=O)[nH]2)c(C)n1C (configuration not stated) > 76.9 µM
CCCc1nc2oc(C(=O)OCC)c(N)c2c2c1COC(C)(C)C2 > 76.9 µM
O=C(NC1CCCCCC1)C1c2ccccc2C(=O)N1C1CC1 (configuration not stated) > 76.9 µM
COc1ccc(N2CCN(CC(=O)Nc3nc4c(s3)CC(C)CC4)CC2)cc1 (configuration not stated) > 76.9 µM
Cc1cc(=O)n2nc(N3CCC(C(=O)NCCc4ccccc4)CC3)sc2n1 > 76.9 µM
CCOC(=O)c1cc2c(=O)n3ccccc3nc2n(Cc2ccccc2)c1=N > 76.9 µM
COc1cc(C2CC(=O)c3cnc(N4CCN(Cc5ccccc5)CC4)nc3C2)cc(OC)c1OC (configuration not stated) > 76.9 µM
COC(=O)c1cc(-c2c(C)oc3cc(O)ccc3c2=O)c(C)o1 > 76.9 µM
CCOC(=O)N1CCN(C(=O)CCc2c(C)nc3c(c(C)nn3-c3ccc(C)c(C)c3)c2C)CC1 > 76.9 µM
O=C(O)C1C2C=CC3(CN(Cc4ccccn4)C(=O)C13)O2 (configuration not stated) > 76.9 µM
CCOC(=O)CCn1nnc(N)n1
COc1ccc(C2C(C(=O)OCC(=O)N3CCCCC3)CCC(=O)N2c2ccc(OC)cc2)cc1 (configuration not stated) > 76.9 µM
COC(=O)C1CCN(C(=O)NC2CCCCC2)CC1 > 76.9 µM
O=C(CSc1nc2c(c(=O)n1-c1ccc(Br)cc1)SCC2)NCC1CCCO1 (configuration not stated) > 76.9 µM
CCC(C)c1c(O)nc(SCc2ccccc2)[nH]c1=O (configuration not stated) > 76.9 µM
Cc1ccc(N2CC(C(=O)NCc3ccccn3)CC2=O)cc1 (configuration not stated) > 76.9 µM
COc1ccccc1N=c1oc2cc(O)ccc2cc1C(=O)NCC1CCCO1 (configuration not stated) > 76.9 µM
CC1Cc2ccccc2N1C1=NS(=O)(=O)c2ccccc21 (configuration not stated) > 76.9 µM
CN(C)CC(=O)N1c2ccccc2CCc2ccc(NC(=O)c3ccc(N)cc3)cc21 > 76.9 µM
COc1ccc(-c2nnn(CC(=O)Nc3sc4c(c3C#N)CCCC4)n2)cc1 > 76.9 µM
C=CCn1c(SCC(=O)C(C)(C)C)nnc1-c1ccccn1 > 76.9 µM
CC(=O)Nc1ccc(S(=O)(=O)NC2(C(F)(F)F)NC(=O)N(C3CCCC3)C2=O)cc1 (configuration not stated) > 76.9 µM
COc1ccc(-c2nnc3ccc(SCC(N)=O)nn23)cc1OC > 76.9 µM
Cc1nc(NCCCn2ccnc2)c2ccccc2n1 > 76.9 µM
O=P(O)(O)CCP(=O)(c1ccccc1)c1ccccc1 > 76.9 µM
O=S(=O)(NCCc1ccncc1)c1cc(Br)ccc1F > 76.9 µM
Cc1nc(NC(=O)CCC(=O)O)sc1C(=O)N(C)C > 76.9 µM
CCS(=O)(=O)NCC(c1cccnc1)N1CCN(c2ccccc2F)CC1 (configuration not stated) > 76.9 µM
CC1CCN(C(=O)CSc2nc(N)cc(N)n2)CC1 > 76.9 µM
O=C(CN1CCN(c2ncc(C(F)(F)F)cc2Cl)CC1)NC(=O)NCc1ccccc1 > 76.9 µM
O=C(Nc1ccc2ccccc2c1)c1cnccn1 > 76.9 µM
CCOc1ccccc1OCC(=O)O > 76.9 µM
Cc1ccc(CN2CCN(CC(=O)N3CCc4ccccc4C3)C2=O)cc1 > 76.9 µM
